B1: CAPRIN1 peptide 364-379 (Caprin-1), 16-mer library wild type / G3BP1 NFT2 (G3BP1 NTF2 domain, […]) (parent complex)
chain 1: AQMQGPYNFIQDSMLD
chain 2: not shown

Variants of: B1
Assay: proteomic peptide phage display deep mutational scan (ProP-PD DMS): M13 P8 16-mer library selected against immobilised GST-tagged bait for four days (rounds), NGS of the eluted pools per day and pseudo-replica; bait immobilised on MaxiSorp plates (10 µg), library pre-cleared on GST, 2 h binding at 4 °C, five washes; one round per day, days 1-4; value from days 2 and 3

Going from chain 1 G5T to chain 1 G5F, the screen value rises from 0.00108 average fractional NGS count over selection days 2 and 3 (reads of this peptide / all reads for the bait, averaged over … to 0.0278 average fractional NGS count over selection days 2 and 3 (reads of this peptide / all reads for the bait, averaged over ….

First: chain 1 G5L
Second: chain 1 G5V
The screen value of the first is lower: 0.000325 average fractional NGS count over selection days 2 and 3 (reads of this peptide / all reads for the bait, averaged over … for the first, 0.00114 average fractional NGS count over selection days 2 and 3 (reads of this peptide / all reads for the bait, averaged over … for the second.

Going from chain 1 G5M to chain 1 G5K, the screen value falls from 0.00218 average fractional NGS count over selection days 2 and 3 (reads of this peptide / all reads for the bait, averaged over … to 0.000245 average fractional NGS count over selection days 2 and 3 (reads of this peptide / all reads for the bait, averaged over ….

Going from chain 1 G5D to chain 1 G5Q, the screen value rises from 0.000228 average fractional NGS count over selection days 2 and 3 (reads of this peptide / all reads for the bait, averaged over … to 0.000636 average fractional NGS count over selection days 2 and 3 (reads of this peptide / all reads for the bait, averaged over ….

First: chain 1 G5N
Second: chain 1 Q2I
The screen value of the first is lower: 0.000337 average fractional NGS count over selection days 2 and 3 (reads of this peptide / all reads for the bait, averaged over … for the first, 0.000733 average fractional NGS count over selection days 2 and 3 (reads of this peptide / all reads for the bait, averaged over … for the second.

Compared with chain 1 Q2E, chain 1 Q2W is lower in screen value: 0.0332 average fractional NGS count over selection days 2 and 3 (reads of this peptide / all reads for the bait, averaged over … for the first, 0.0105 average fractional NGS count over selection days 2 and 3 (reads of this peptide / all reads for the bait, averaged over … for the second.

First: chain 1 Q2M
Second: chain 1 Q2K
The screen value of the first is higher: 0.0389 average fractional NGS count over selection days 2 and 3 (reads of this peptide / all reads for the bait, averaged over … for the first, 0.00215 average fractional NGS count over selection days 2 and 3 (reads of this peptide / all reads for the bait, averaged over … for the second.

First: chain 1 Q2S
Second: chain 1 Q2G
The screen value of the first is higher: 0.00148 average fractional NGS count over selection days 2 and 3 (reads of this peptide / all reads for the bait, averaged over … for the first, 0.000442 average fractional NGS count over selection days 2 and 3 (reads of this peptide / all reads for the bait, averaged over … for the second.

First: chain 1 Q2N
Second: chain 1 Q2R
The screen value of the first is higher: 0.000638 average fractional NGS count over selection days 2 and 3 (reads of this peptide / all reads for the bait, averaged over … for the first, 0.000371 average fractional NGS count over selection days 2 and 3 (reads of this peptide / all reads for the bait, averaged over … for the second.

Going from chain 1 Q2H to chain 1 Q2T, the screen value falls from 0.00981 average fractional NGS count over selection days 2 and 3 (reads of this peptide / all reads for the bait, averaged over … to 0.0042 average fractional NGS count over selection days 2 and 3 (reads of this peptide / all reads for the bait, averaged over ….

Going from chain 1 Q2A to chain 1 Q2V, the screen value rises from 0.0126 average fractional NGS count over selection days 2 and 3 (reads of this peptide / all reads for the bait, averaged over … to 0.0133 average fractional NGS count over selection days 2 and 3 (reads of this peptide / all reads for the bait, averaged over ….

Compared with chain 1 Q2L, chain 1 A1D is lower in screen value: 0.00213 average fractional NGS count over selection days 2 and 3 (reads of this peptide / all reads for the bait, averaged over … for the first, 0.00095 average fractional NGS count over selection days 2 and 3 (reads of this peptide / all reads for the bait, averaged over … for the second.

First: chain 1 A1E
Second: chain 1 A1N
The screen value of the first is lower: 0.000756 average fractional NGS count over selection days 2 and 3 (reads of this peptide / all reads for the bait, averaged over … for the first, 0.00166 average fractional NGS count over selection days 2 and 3 (reads of this peptide / all reads for the bait, averaged over … for the second.

Going from chain 1 A1H to chain 1 A1V, the screen value rises from 0.000554 average fractional NGS count over selection days 2 and 3 (reads of this peptide / all reads for the bait, averaged over … to 0.00538 average fractional NGS count over selection days 2 and 3 (reads of this peptide / all reads for the bait, averaged over ….

Going from chain 1 A1G to chain 1 A1I, the screen value falls from 0.000992 average fractional NGS count over selection days 2 and 3 (reads of this peptide / all reads for the bait, averaged over … to 0.00024 average fractional NGS count over selection days 2 and 3 (reads of this peptide / all reads for the bait, averaged over ….

First: chain 1 A1S
Second: chain 1 A1Q
The screen value of the first is lower: 0.000106 average fractional NGS count over selection days 2 and 3 (reads of this peptide / all reads for the bait, averaged over … for the first, 0.00399 average fractional NGS count over selection days 2 and 3 (reads of this peptide / all reads for the bait, averaged over … for the second.

Going from chain 1 A1F to chain 1 A1Y, the screen value rises from 0.00358 average fractional NGS count over selection days 2 and 3 (reads of this peptide / all reads for the bait, averaged over … to 0.0126 average fractional NGS count over selection days 2 and 3 (reads of this peptide / all reads for the bait, averaged over ….

Going from chain 1 A1R to chain 1 A1T, the screen value rises from 0.000399 average fractional NGS count over selection days 2 and 3 (reads of this peptide / all reads for the bait, averaged over … to 0.000526 average fractional NGS count over selection days 2 and 3 (reads of this peptide / all reads for the bait, averaged over ….

Compared with chain 1 M3R, chain 1 M3A is higher in screen value: 0.000486 average fractional NGS count over selection days 2 and 3 (reads of this peptide / all reads for the bait, averaged over … for the first, 0.000963 average fractional NGS count over selection days 2 and 3 (reads of this peptide / all reads for the bait, averaged over … for the second.

First: chain 1 M3D
Second: chain 1 M3G
The screen value of the first is lower: 0.00185 average fractional NGS count over selection days 2 and 3 (reads of this peptide / all reads for the bait, averaged over … for the first, 0.00384 average fractional NGS count over selection days 2 and 3 (reads of this peptide / all reads for the bait, averaged over … for the second.

Going from chain 1 M3S to chain 1 M3I, the screen value rises from 0.000351 average fractional NGS count over selection days 2 and 3 (reads of this peptide / all reads for the bait, averaged over … to 0.00263 average fractional NGS count over selection days 2 and 3 (reads of this peptide / all reads for the bait, averaged over ….

Compared with chain 1 M3H, chain 1 M3W is higher in screen value: 0.00286 average fractional NGS count over selection days 2 and 3 (reads of this peptide / all reads for the bait, averaged over … for the first, 0.00995 average fractional NGS count over selection days 2 and 3 (reads of this peptide / all reads for the bait, averaged over … for the second.

Going from chain 1 M3F to chain 1 M3E, the screen value rises from 0.00132 average fractional NGS count over selection days 2 and 3 (reads of this peptide / all reads for the bait, averaged over … to 0.00395 average fractional NGS count over selection days 2 and 3 (reads of this peptide / all reads for the bait, averaged over ….

Compared with chain 1 M3T, chain 1 M3Y is lower in screen value: 0.00733 average fractional NGS count over selection days 2 and 3 (reads of this peptide / all reads for the bait, averaged over … for the first, 0.00178 average fractional NGS count over selection days 2 and 3 (reads of this peptide / all reads for the bait, averaged over … for the second.

First: chain 1 M3Q
Second: chain 1 Q11L
The screen value of the first is higher: 0.00839 average fractional NGS count over selection days 2 and 3 (reads of this peptide / all reads for the bait, averaged over … for the first, 0.000312 average fractional NGS count over selection days 2 and 3 (reads of this peptide / all reads for the bait, averaged over … for the second.

Going from chain 1 Q11T to chain 1 Q11M, the screen value rises from 0.00046 average fractional NGS count over selection days 2 and 3 (reads of this peptide / all reads for the bait, averaged over … to 0.00123 average fractional NGS count over selection days 2 and 3 (reads of this peptide / all reads for the bait, averaged over ….

First: chain 1 Q11W
Second: chain 1 Q11N
The screen value of the first is higher: 0.000693 average fractional NGS count over selection days 2 and 3 (reads of this peptide / all reads for the bait, averaged over … for the first, 0.000354 average fractional NGS count over selection days 2 and 3 (reads of this peptide / all reads for the bait, averaged over … for the second.

Compared with chain 1 Q11G, chain 1 Q11F is lower in screen value: 0.0037 average fractional NGS count over selection days 2 and 3 (reads of this peptide / all reads for the bait, averaged over … for the first, 0.000281 average fractional NGS count over selection days 2 and 3 (reads of this peptide / all reads for the bait, averaged over … for the second.

Going from chain 1 Q11R to chain 1 Q11S, the screen value rises from 0.000196 average fractional NGS count over selection days 2 and 3 (reads of this peptide / all reads for the bait, averaged over … to 0.00259 average fractional NGS count over selection days 2 and 3 (reads of this peptide / all reads for the bait, averaged over ….

Going from chain 1 S13T to chain 1 S13D, the screen value falls from 0.000255 average fractional NGS count over selection days 2 and 3 (reads of this peptide / all reads for the bait, averaged over … to 0.000131 average fractional NGS count over selection days 2 and 3 (reads of this peptide / all reads for the bait, averaged over ….

Compared with chain 1 S13A, chain 1 S13N is higher in screen value: 0.000238 average fractional NGS count over selection days 2 and 3 (reads of this peptide / all reads for the bait, averaged over … for the first, 0.000299 average fractional NGS count over selection days 2 and 3 (reads of this peptide / all reads for the bait, averaged over … for the second.

Going from chain 1 N8W to chain 1 N8Y, the screen value falls from 0.0215 average fractional NGS count over selection days 2 and 3 (reads of this peptide / all reads for the bait, averaged over … to 0.00187 average fractional NGS count over selection days 2 and 3 (reads of this peptide / all reads for the bait, averaged over ….

First: chain 1 N8M
Second: chain 1 N8S
The screen value of the first is lower: 0.00371 average fractional NGS count over selection days 2 and 3 (reads of this peptide / all reads for the bait, averaged over … for the first, 0.00843 average fractional NGS count over selection days 2 and 3 (reads of this peptide / all reads for the bait, averaged over … for the second.

First: chain 1 N8V
Second: chain 1 N8H
The screen value of the first is higher: 0.00509 average fractional NGS count over selection days 2 and 3 (reads of this peptide / all reads for the bait, averaged over … for the first, 0.00457 average fractional NGS count over selection days 2 and 3 (reads of this peptide / all reads for the bait, averaged over … for the second.

Compared with chain 1 N8R, chain 1 N8A is higher in screen value: 0.0014 average fractional NGS count over selection days 2 and 3 (reads of this peptide / all reads for the bait, averaged over … for the first, 0.0123 average fractional NGS count over selection days 2 and 3 (reads of this peptide / all reads for the bait, averaged over … for the second.

Going from chain 1 N8Q to chain 1 N8D, the screen value falls from 0.00747 average fractional NGS count over selection days 2 and 3 (reads of this peptide / all reads for the bait, averaged over … to 0.000568 average fractional NGS count over selection days 2 and 3 (reads of this peptide / all reads for the bait, averaged over ….

Compared with chain 1 N8I, chain 1 N8F is higher in screen value: 0.00118 average fractional NGS count over selection days 2 and 3 (reads of this peptide / all reads for the bait, averaged over … for the first, 0.0014 average fractional NGS count over selection days 2 and 3 (reads of this peptide / all reads for the bait, averaged over … for the second.

For chain 1 N8G, the screen value was 0.000246 average fractional NGS count over selection days 2 and 3 (reads of this peptide / all reads for the bait, averaged over ….
